The text below walks through data of PMC3297496.

What all share (assay): two-hybrid; split-ubiquitin pair-wise assay in yeast: DOP-2XL baits (full length in pBT3-STE, truncations in pBT3-SUC) with NubG preys (pPR3-N, pPR3-STE, pDL2-Alg5); growth on SD/-Ade-His-Leu-Trp with 1 mM 3-AT and X-gal filter assay
Assay [1] has as its target T1, DOP-2IL-CIV (DOP-2XL amino acids 821-849), split-ubiquitin bait in pBT3-SUC (C. elegans) (UniProt E7EM37).
T1 sequence: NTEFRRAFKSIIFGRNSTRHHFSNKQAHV

Assay [2] deals with T2, C. elegans D2-like dopamine receptor DOP-2XL, full-length split-ubiquitin bait (dop-2c in pBT3-STE) (C. elegans) (UniProt E7EM37).
T2 sequence: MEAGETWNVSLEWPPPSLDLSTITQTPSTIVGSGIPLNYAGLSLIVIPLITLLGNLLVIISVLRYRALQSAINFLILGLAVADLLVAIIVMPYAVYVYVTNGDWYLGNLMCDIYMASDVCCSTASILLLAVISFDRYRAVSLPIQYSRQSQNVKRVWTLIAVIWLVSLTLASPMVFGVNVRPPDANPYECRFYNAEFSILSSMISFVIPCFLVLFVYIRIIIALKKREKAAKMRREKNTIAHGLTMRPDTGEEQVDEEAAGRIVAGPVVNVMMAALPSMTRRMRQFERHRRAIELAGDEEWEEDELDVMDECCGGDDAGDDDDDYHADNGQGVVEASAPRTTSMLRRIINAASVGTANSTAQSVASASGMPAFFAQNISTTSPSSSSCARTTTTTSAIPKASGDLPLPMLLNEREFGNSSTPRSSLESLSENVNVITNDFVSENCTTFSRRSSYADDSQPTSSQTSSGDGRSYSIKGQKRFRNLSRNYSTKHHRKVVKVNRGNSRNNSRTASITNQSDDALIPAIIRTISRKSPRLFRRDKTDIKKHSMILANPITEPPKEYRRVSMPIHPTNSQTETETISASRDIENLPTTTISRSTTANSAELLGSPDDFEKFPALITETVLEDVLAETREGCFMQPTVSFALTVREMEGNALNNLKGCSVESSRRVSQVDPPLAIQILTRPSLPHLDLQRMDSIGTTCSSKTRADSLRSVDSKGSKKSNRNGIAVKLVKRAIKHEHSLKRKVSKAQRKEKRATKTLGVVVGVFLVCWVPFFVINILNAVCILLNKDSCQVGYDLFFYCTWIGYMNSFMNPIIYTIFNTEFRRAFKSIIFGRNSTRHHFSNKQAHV

For assay [3], the target named is T3, DOP-2IL-CI (DOP-2XL amino acids 64-849), split-ubiquitin bait in pBT3-SUC (C. elegans) (UniProt E7EM37).
T3 sequence: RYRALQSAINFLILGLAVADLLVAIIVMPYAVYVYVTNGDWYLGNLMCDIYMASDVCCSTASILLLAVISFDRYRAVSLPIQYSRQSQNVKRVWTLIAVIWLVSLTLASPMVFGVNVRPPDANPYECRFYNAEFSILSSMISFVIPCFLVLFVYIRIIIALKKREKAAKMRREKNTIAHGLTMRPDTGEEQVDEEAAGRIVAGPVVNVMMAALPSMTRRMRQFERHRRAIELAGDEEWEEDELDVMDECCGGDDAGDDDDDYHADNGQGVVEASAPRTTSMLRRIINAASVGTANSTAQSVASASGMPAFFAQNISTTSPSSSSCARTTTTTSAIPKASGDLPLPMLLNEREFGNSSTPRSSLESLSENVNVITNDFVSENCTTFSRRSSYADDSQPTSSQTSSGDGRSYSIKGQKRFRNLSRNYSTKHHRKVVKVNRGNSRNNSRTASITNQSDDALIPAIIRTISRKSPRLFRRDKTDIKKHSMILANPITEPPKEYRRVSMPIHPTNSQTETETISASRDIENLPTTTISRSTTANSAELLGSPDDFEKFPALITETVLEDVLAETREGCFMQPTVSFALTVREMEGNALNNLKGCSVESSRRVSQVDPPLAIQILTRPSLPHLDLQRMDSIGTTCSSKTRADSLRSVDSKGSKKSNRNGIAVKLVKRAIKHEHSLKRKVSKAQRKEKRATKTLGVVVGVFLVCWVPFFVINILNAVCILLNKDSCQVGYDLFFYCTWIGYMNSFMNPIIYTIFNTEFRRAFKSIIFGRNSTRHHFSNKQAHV

Results are given in words; binding and its absence hold for the method and conditions named. Some entries that bind do so weakly or less than the wild type. Sequences can lack the tags named with a protein.

B1: GPA-14, split-ubiquitin prey in pPR3-N (NubG fusion) (protein, UniProt Q9BIG2 1-408)
chain: MAFSCFDKFSYTYCYQCMHGPDGCMVPSRNGEGTELYAHSEELEAKLRELARRGHMEIEKELALEKKTYGSHIKILILGGPLSGKSTIFKQMQIIHVDGFKTDQELIQYRGLIDNNIRDIYLQLIAGSRVVGIPLDPIEHITYEIDEIYAPMSDAFSVRTISELLEPLTEFWNSKQIQEIYKRRCEFELLDSTKYYLENLTRIADPTYLPNQEDIVHSRKATMSINSIVFEYTGVSLLMIDVGGQRSERKKWLHLFDDAKVVLFVIDLTGYAKRSEESRMELSRFPKFFRDVGSNAYDMKVALKIFNEVAAASALANAVFLLFFNKVDLFKEILSQVNLQPCFSKFDGENTYEETSKYICEKFIRAASSKKSVFPHFTTATNTENVKLVFRACMESVFKANAKATGLS
Take B1: the binding entry in assay [1] is recorded as “no binding”; in assay [2], “binds”; in assay [3], “binds”.
